Assay results: US11773160 (ANAVEON, dated 2023)

T1: trimeric IL-2 receptor on HEK-Blue IL-2 reporter cells (UniProt P01589 22-272; P14784 27-551; P31785 23-369, limits assumed)
T1 sequence (looked up) 1: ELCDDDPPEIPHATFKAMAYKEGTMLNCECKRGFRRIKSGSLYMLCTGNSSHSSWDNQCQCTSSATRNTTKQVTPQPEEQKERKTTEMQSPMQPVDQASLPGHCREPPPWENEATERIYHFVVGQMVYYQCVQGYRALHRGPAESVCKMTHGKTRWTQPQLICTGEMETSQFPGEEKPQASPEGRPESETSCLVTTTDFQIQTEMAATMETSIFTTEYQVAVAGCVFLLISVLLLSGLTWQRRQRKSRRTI
T1 sequence (looked up) 2: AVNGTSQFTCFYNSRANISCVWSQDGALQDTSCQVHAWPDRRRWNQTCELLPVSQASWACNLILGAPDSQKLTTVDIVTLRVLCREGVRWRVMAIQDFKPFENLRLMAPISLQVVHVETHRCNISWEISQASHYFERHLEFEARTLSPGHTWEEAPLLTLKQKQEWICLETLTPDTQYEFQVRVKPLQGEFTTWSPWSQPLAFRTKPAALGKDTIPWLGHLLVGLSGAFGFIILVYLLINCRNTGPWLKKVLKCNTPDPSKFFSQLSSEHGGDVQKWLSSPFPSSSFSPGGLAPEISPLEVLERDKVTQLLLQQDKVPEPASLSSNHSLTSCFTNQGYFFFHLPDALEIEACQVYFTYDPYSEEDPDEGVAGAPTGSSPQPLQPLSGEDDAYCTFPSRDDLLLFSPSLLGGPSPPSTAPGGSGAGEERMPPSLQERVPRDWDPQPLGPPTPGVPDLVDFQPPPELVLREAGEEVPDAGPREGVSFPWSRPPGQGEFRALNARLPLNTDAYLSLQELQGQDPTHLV
T1 sequence (looked up) 3: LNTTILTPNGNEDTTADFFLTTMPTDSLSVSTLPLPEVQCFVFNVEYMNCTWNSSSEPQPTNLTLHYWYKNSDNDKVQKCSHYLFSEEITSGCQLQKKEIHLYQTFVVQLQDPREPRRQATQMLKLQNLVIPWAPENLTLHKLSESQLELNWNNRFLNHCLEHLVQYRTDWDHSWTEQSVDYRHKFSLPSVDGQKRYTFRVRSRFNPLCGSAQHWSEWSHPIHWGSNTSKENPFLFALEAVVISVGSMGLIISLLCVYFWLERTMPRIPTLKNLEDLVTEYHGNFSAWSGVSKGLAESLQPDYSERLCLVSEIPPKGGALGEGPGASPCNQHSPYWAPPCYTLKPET

T2: IL-2R on murine splenocytes (C57BL/6)
T2 sequence (P01590 whole entry, looked up): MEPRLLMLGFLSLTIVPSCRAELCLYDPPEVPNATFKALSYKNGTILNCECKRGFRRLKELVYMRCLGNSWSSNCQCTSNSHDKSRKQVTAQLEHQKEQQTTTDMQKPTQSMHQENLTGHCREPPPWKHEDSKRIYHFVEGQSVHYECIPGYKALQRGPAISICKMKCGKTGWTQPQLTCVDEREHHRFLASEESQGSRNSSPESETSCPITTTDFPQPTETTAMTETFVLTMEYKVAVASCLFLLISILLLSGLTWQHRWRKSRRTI
T2 sequence (P16297 whole entry, looked up): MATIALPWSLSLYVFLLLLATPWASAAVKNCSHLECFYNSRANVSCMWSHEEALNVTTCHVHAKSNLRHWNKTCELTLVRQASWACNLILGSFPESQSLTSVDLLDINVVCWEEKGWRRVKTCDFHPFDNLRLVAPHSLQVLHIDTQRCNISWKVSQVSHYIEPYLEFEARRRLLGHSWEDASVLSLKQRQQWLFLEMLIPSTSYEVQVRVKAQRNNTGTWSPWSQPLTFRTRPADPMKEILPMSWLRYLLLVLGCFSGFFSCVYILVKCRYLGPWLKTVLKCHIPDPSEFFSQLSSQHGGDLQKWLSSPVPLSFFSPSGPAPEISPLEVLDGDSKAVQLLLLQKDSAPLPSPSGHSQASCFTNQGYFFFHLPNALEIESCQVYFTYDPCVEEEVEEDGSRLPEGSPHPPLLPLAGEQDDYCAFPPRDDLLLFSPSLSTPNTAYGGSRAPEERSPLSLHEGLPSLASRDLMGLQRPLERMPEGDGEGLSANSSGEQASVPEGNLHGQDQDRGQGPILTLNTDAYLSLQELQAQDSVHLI
T2 sequence (P34902 whole entry, looked up): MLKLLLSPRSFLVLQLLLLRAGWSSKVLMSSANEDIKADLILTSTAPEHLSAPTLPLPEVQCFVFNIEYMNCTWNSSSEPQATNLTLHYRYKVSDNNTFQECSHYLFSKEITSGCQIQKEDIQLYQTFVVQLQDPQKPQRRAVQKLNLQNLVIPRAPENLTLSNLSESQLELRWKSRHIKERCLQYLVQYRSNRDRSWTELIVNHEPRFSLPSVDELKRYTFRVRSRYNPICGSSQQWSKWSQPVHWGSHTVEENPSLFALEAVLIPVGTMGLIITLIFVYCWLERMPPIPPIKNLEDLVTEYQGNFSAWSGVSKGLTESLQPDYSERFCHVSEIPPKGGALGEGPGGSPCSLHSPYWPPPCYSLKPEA

T3: His-tagged recombinant CD25 (human, UniProt P01589 22-213, limits assumed)
T3 construct: Captured via TrisNTA Biotin on SA chips; also called IL-2 receptor alpha; IL-2Rα; not shown: His tag
T3 sequence (looked up): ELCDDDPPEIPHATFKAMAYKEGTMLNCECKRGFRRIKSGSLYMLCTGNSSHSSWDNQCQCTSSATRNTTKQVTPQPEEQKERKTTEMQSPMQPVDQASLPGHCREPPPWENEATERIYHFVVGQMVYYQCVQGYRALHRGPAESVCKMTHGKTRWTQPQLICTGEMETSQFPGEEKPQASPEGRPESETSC

B1: GYG794 (other)
heavy: QVQLVESGGGVVQPGRSLRLSCAASGYTFSSYLIEWVRQAPGKGLEWVAVINPGSGGTNYADSVKGRFTISADKSKNTAYLQMNSLRAEDTAVYYCARWRGDGYYAYFDVWGQGTTVTVSSASTKGPSVFPLAPSSKSTSGGTAALGCLVKDYFPEPVTVSWNSGALTSGVHTFPAVLQSSGLYSLSSVVTVPSSSLGTQTYICNVNHKPSNTKVDKRV[omitted - human IgG1 Fc]
light: EIVLTQSPATLSVSPGERATLSCRASQSVSYGGNFHLRPRDLISNINVIVLELKGSETTFMCEYADETATIVEFLNRWITFSQSIISTLTPTSSSTKKTQLQLEHLLLDLQMILNGINNYKNPKLTRMLTFKFYMPKKATELKHLQCLEEELKPLEEVLNLAQSKGGGDSYMNWYQQKPGQAPRLLIYAASNLASGIPARFSGSGSGTEFTLTISSLQSEDAAVYYCQQSNEDPYTFGGGTKVEIKRTVAAPSVFIFPPSDEQLKSGTASVVCLLNNFYPREAKVQWKVDNALQSGNSQESVTEQDSKDSTYSLSSTLTLSKADYEKHKVYACEVTHQGLSSPVTKSFNRGEC
notes: also called IL-2 fusion protein to antibody B, linker 1 2 AA, linker 2 3 AA
B2: ECV200 (other)
heavy: B1 heavy
light: EIVLTQSPATLSVSPGERATLSCRASQSVSYGGGGSGNFHLRPRDLISNINVIVLELKGSETTFMCEYADETATIVEFLNRWITFSQSIISTLTPTSSSTKKTQLQLEHLLLDLQMILNGINNYKNPKLTRMLTFKFYMPKKATELKHLQCLEEELKPLEEVLNLAQSKGGGGSGGDSYMNWYQQKPGQAPRLLIYAASNLASGIPARFSGSGSGTEFTLTISSLQSEDAAVYYCQQSNEDPYTFGGGTKVEIKRTVAAPSVFIFPPSDEQLKSGTASVVCLLNNFYPREAKVQWKVDNALQSGNSQESVTEQDSKDSTYSLSSTLTLSKADYEKHKVYACEVTHQGLSSPVTKSFNRGEC
notes: also called IL-2 fusion protein to antibody B, linker 1 6 AA, linker 2 7 AA
B3: DRO069 (other)
heavy: B1 heavy
light: EIVLTQSPATLSVSPGERATLSCRASQSVSYGGGNFHLRPRDLISNINVIVLELKGSETTFMCEYADETATIVEFLNRWITFSQSIISTLTPTSSSTKKTQLQLEHLLLDLQMILNGINNYKNPKLTRMLTFKFYMPKKATELKHLQCLEEELKPLEEVLNLAQSKGGGGDSYMNWYQQKPGQAPRLLIYAASNLASGIPARFSGSGSGTEFTLTISSLQSEDAAVYYCQQSNEDPYTFGGGTKVEIKRTVAAPSVFIFPPSDEQLKSGTASVVCLLNNFYPREAKVQWKVDNALQSGNSQESVTEQDSKDSTYSLSSTLTLSKADYEKHKVYACEVTHQGLSSPVTKSFNRGEC
notes: also called IL-2 fusion protein to antibody B, linker 1 3 AA, linker 2 4 AA
B4: EPK959 (other)
heavy: B1 heavy
light: EIVLTQSPATLSVSPGERATLSCRASQSVSYNFHLRPRDLISNINVIVLELKGSETTFMCEYADETATIVEFLNRWITFSQSIISTLTPTSSSTKKTQLQLEHLLLDLQMILNGINNYKNPKLTRMLTFKFYMPKKATELKHLQCLEEELKPLEEVLNLAQSKGDSYMNWYQQKPGQAPRLLIYAASNLASGIPARFSGSGSGTEFTLTISSLQSEDAAVYYCQQSNEDPYTFGGGTKVEIKRTVAAPSVFIFPPSDEQLKSGTASVVCLLNNFYPREAKVQWKVDNALQSGNSQESVTEQDSKDSTYSLSSTLTLSKADYEKHKVYACEVTHQGLSSPVTKSFNRGEC
notes: also called IL-2 fusion protein to antibody B, linker 1 0 AA, linker 2 1 AA

What follows are binders tested against T1, trimeric IL-2 receptor on HEK-Blue IL-2 … (assay: cell-based or functional assay).

B1 and B2 are within 1.5-fold of each other in “EC50 (M), SEAP of HEK-Blue IL-2 reporter cells” value: 3.9e-12 M for the first, 3.42e-12 M for the second.

B3 and B4 are within 1.5-fold of each other in “EC50 (M), SEAP of HEK-Blue IL-2 reporter cells” value: 3.45e-12 M for the first, 3.66e-12 M for the second.

The binders below were run against T2, IL-2R on murine splenocytes (C57BL/6) (assay: cell-based or functional assay).

Going from B1 to B2, the “EC50 CD8 cells (nM), pSTAT5 MFI” value falls from 18.6 nM to 6.9 nM.

First: B3
Second: B4
The “EC50 CD8 cells (nM), pSTAT5 MFI” value of the first is lower: 6.8 nM for the first, 16 nM for the second.

First: B1
Second: B2
The “EC50 NK cells (nM), pSTAT5 MFI” value of the first is higher: 1.5 nM for the first, 0.9 nM for the second.

Going from B3 to B4, the “EC50 NK cells (nM), pSTAT5 MFI” value rises from 0.9 nM to 1.9 nM.

Compared with B1, B2 is lower in “EC50 Treg cells (nM), pSTAT5 MFI” value: 4.8 nM for the first, 3.7 nM for the second.

Going from B3 to B4, the “EC50 Treg cells (nM), pSTAT5 MFI” value rises from 6.6 nM to 16 nM.

These binders were tested against T4, monoclonal anti-human IL-2 antibody 5344 (BD, 555051) (assay: sandwich ELISA, 5344 coated, fusion protein titrated, anti-human IgG-Peroxidase).
T4 construct: Coated capture antibody
Procedure: The antibody-IL-2 fusion proteins were tested on a sandwich ELISA, to assess the correct folding of the IL-2 portion. […] The obtained signals (Absorbance 450-570 nm) were plotted as function of antibody-IL-2 fusion protein concentration (as log value). The $EC50$ values were interpolated fitting the data with GraphPad Prism 8 (Table 6).

Compared with B1, B2 is 1.5-fold lower in EC50: 0.2 nM for the first, 0.13 nM for the second. The second is the more potent here.

B3 and B4 are within 1.5-fold of each other in EC50: 0.11 nM for the first, 0.15 nM for the second.

The binders below were run against T3, His-tagged recombinant CD25 (assay: SPR (BIAcore 3000), His-tagged CD25 captured, kinetic titration of fusion protein).
Procedure: HEK-Blue™ IL-2 reporter cells (Invivogen) were incubated with a dilution series (1:3 dilutions from 0.56 nM) of antibody-IL-2 fusion protein in growth medium for 20 hours Example 4. IL-2 fusion protein in vitro selectivity Binding affinities to CD25 measured by SPR Binding affinities of the IL-2 fusion protein to the IL-2 receptor CD25 were measured by SPR (BIAcore 3000, GE Healthcare, 33-1140587-3682). His-tagged recombinant CD25 was captured via TrisNTA Biotin on SA chips and Kinetic titration of IL-2 fusion proteins of the present invention was performed reaching concentrations up to 500 nM.

B1: no binding (tested: concentrations up to 500 nM).
B2: no binding (tested: concentrations up to 500 nM).
B3: no binding (tested: concentrations up to 500 nM).
B4: no binding (tested: concentrations up to 500 nM).

The binders below were run against monoclonal anti-human IL-2 antibody Nara1 (assay: ELISA, Nara1 coated, fusion protein titrated, anti-human IgG-Peroxidase; lowest concentration with signal at or above the cut point).

Going from B1 to B2, the “Lowest concentration (nM) OD450-570 ≥ CP” value falls from 0.83 nM to 0.28 nM (3-fold).

Compared with B3, B4 is 9-fold higher in “Lowest concentration (nM) OD450-570 ≥ CP” value: 0.83 nM for the first, 7.5 nM for the second.
